Measurements: article PMC4336329 (PLoS ONE, 2015)
Hit rate of the full screen: of about 310,000 compounds, about 14,000 (4.5%) showed an effect of 50% or more. Effects have a minus sign here. This is one part of the list.

What follows are molecules tested against human ether-à-go-go-related gene (hERG) potassium channel (human, UniProt Q12809) (assay: primary screen, population patch clamp on CHO cells stably expressing hERG).
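Note: peak tail current of the secondary pulse compared with the same well before compound.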

human ether-à-go-go-related gene (hERG) potassium channel, sequence (Q12809 whole entry, looked up): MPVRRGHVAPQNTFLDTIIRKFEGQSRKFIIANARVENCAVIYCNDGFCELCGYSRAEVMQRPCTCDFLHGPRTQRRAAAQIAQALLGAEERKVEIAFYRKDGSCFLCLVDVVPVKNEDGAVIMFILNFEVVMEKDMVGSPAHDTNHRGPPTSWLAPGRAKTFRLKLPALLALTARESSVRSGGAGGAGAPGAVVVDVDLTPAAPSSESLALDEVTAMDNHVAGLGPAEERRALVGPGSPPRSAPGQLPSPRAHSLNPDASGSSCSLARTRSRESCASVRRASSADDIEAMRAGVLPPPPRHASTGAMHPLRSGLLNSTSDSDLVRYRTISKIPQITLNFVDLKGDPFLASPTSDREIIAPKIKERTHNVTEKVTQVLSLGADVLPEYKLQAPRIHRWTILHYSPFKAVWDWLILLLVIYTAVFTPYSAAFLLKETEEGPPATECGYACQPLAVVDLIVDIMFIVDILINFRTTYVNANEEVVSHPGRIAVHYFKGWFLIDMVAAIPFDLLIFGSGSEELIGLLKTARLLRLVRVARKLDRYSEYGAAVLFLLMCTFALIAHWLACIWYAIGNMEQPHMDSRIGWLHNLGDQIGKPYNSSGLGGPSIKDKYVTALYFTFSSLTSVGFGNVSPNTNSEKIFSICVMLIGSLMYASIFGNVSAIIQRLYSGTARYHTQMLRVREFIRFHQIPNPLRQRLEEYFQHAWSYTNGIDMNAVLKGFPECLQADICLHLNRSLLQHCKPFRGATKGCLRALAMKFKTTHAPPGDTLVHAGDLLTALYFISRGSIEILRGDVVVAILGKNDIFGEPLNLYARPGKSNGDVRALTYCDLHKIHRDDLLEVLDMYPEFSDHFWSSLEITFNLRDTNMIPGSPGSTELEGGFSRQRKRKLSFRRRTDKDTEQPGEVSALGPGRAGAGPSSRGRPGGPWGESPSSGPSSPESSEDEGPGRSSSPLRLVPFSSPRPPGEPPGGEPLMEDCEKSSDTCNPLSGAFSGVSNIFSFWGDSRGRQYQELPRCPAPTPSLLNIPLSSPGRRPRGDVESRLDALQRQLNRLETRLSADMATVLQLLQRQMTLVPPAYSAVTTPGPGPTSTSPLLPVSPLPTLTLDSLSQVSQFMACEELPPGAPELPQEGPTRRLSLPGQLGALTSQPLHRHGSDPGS

Compared with `NS(=O)(=O)c1ccc(NC(=O)COC(=O)CSc2n[nH]c(-c3ccccc3)n2)cc1`, `CC(OC(=O)C(C)Oc1ccccc1)C(=O)Nc1ccc(S(=O)(=O)N2CCCCC2)cc1` (centres unmarked) is lower in “hERG current change (%, negative = inhibition) at 10uM” value: 12% for the first, 4.39% for the second.

First: Cc1c(NC(=O)CSc2nccn2C)c(=O)n(-c2ccccc2)n1C
Second: Cc1ncc([N+](=O)[O-])n1CC(=O)NCCc1ccccc1
The “hERG current change (%, negative = inhibition) at 10uM” value of the first is higher: 10.9% for the first, 9.06% for the second.

Going from `Nc1nc(C(F)(F)F)c(Br)c(=O)n1N` to `COC(=O)C(O)(c1ccc(NC(=O)c2cccs2)c(C)c1)C(F)(F)F` (centres unmarked), the “hERG current change (%, negative = inhibition) at 10uM” value falls from -1.14% to -4.09%.

Compared with `COc1ccc(C2CC(c3cccs3)=NN2C(=O)CN2CCCCC2)cc1` (centres unmarked), `COc1ccccc1NC(=O)Cn1cnc2sc(C)c(S(=O)(=O)N3CCCCC3)c2c1=O` is higher in “hERG current change (%, negative = inhibition) at 10uM” value: -71.9% for the first, 14.1% for the second.

Going from `O=C1OCC/C1=C\OCCCO/C=C1\CCOC1=O` to `O=C1C(Cl)=C(N2CCCCCC2)C(=O)N1c1ccccc1Cl`, the “hERG current change (%, negative = inhibition) at 10uM” value falls from 19.8% to 7.76%.

First: O=C(N/N=C/c1sc2ccccc2c1O)c1ccccc1
Second: O=C(c1ccccc1)N(Nc1ccccc1)c1ccccc1
The “hERG current change (%, negative = inhibition) at 10uM” value of the first is lower: -6.43% for the first, 1.78% for the second.

First: CCOc1ccc2nc(NCCNC(=S)NCCCN(C)C)c(C#N)cc2c1
Second: CCN(CC)C(=O)c1sc2nc(-c3ccc(OC)cc3)cn2c1C
The “hERG current change (%, negative = inhibition) at 10uM” value of the first is higher: 1.89% for the first, -13.2% for the second.

Compared with `O=C(O)C1SCCN1S(=O)(=O)c1ccc(N=NN2CCOCC2)cc1` (centres unmarked), `O=C(c1cccs1)N1CCN(C(=O)N2CCOCC2)CC1` is higher in “hERG current change (%, negative = inhibition) at 10uM” value: -1.95% for the first, 16.6% for the second.

Compared with `CC(=O)Nc1ccc(NC(=O)C(C)OC(=O)/C(C#N)=C/c2ccc(N(C)C)cc2)cc1` (centres unmarked), `Cc1ccc(S(=O)(=O)Nc2ccc(C(=O)OCC(=O)N(CCC#N)c3ccccc3)cc2)cc1C` is lower in “hERG current change (%, negative = inhibition) at 10uM” value: 5.39% for the first, -8.85% for the second.

Going from `COc1ccc2c(c1)CC1(CN2C)C(=O)NC(=O)N(c2ccc(C)cc2)C1=O` (centres unmarked) to `COC(=O)c1ccc(=O)n(-c2ccc(OC)cc2)c1`, the “hERG current change (%, negative = inhibition) at 10uM” value rises from 14.5% to 14.8%.

Going from `COc1ccc2c(CC(=O)OCC(=O)Nc3cc(C)c(C)cc3[N+](=O)[O-])coc2c1` to `COc1ccc(C(=O)CCS(=O)(=O)c2ccc(C)cc2)cc1OC`, the “hERG current change (%, negative = inhibition) at 10uM” value falls from 5.69% to -0.0136%.

Compared with `Cc1oc(-c2cccs2)nc1CN1CCN(CC(C)C)C(CCO)C1` (centres unmarked), `Cc1ccc(C(=O)N2CCCC(c3nc4c(nnn4Cc4ccccc4)c(=O)[nH]3)C2)cc1` (centres unmarked) is lower in “hERG current change (%, negative = inhibition) at 10uM” value: 5.96% for the first, -62.4% for the second.

Compared with `COCC(=O)N1CCCc2ccccc21`, `NNC(=O)CN1CCCc2ccccc21` is higher in “hERG current change (%, negative = inhibition) at 10uM” value: 5.29% for the first, 28.3% for the second.

First: COc1ccc(CCN2C(=O)CN=C2Nc2ccc(F)cc2)cc1OC
Second: COc1cccc(CN(C)C(=O)COc2ccc(C(=O)c3ccc(Cl)cc3)cc2)c1OC
The “hERG current change (%, negative = inhibition) at 10uM” value of the first is higher: 15.1% for the first, -14.1% for the second.

First: O=C(NCC(=O)N(Cc1cccs1)C(C(=O)NC1CCCC1)c1ccco1)c1cccs1 (centres unmarked)
Second: CCOc1ccc(-n2c(SCC(=O)NCc3ccco3)nnc2-c2c[nH]c3ccccc23)cc1
The “hERG current change (%, negative = inhibition) at 10uM” value of the first is higher: -1.01% for the first, -46.3% for the second.

Going from `Cl.NC(CCCCc1ccccc1)c1cccc2ccccc12` (centres unmarked) to `Cc1nn(Cc2ccccc2)c2ncccc12`, the “hERG current change (%, negative = inhibition) at 10uM” value rises from -11.9% to 20.7%.

Going from `Cc1ccc(Cl)cc1N1CCN(S(=O)(=O)c2cnc[nH]2)CC1` to `O=C(Nc1ccc(N2CCOCC2)cc1)c1nc2ccccc2s1`, the “hERG current change (%, negative = inhibition) at 10uM” value falls from -3.52% to -9.87%.

Going from `COCCNc1nc(-c2ccccc2)nc2c1oc1ccccc12.Cl` to `Cc1cccc(CS(=O)(=O)Cc2ccc(C(=O)NC(C)c3ccccc3)o2)c1` (centres unmarked), the “hERG current change (%, negative = inhibition) at 10uM” value falls from -6.3% to -17.6%.

First: N/C(=N\OC(=O)N1c2ccccc2Sc2ccccc21)c1ccc(Br)cc1
Second: CC(=O)Oc1ccc(C(c2ccc(OC(C)=O)cc2)c2ccccn2)cc1
The “hERG current change (%, negative = inhibition) at 10uM” value of the first is higher: 5.79% for the first, 1.2% for the second.

Compared with `C/C(=N/NS(=O)(=O)c1ccc(C)cc1)c1c[nH]c2ccccc12`, `CCCN1C2CCCC1CC(NC(=O)c1ccccc1OC)C2` (centres unmarked) is lower in “hERG current change (%, negative = inhibition) at 10uM” value: 10.5% for the first, -3.42% for the second.

First: O=C1NC2(CCCCCC2)N=C1c1ccc(F)cc1
Second: N#CC1=C(N)N(c2ccccc2)C(=O)C1
The “hERG current change (%, negative = inhibition) at 10uM” value of the first is lower: 5.29% for the first, 11.7% for the second.

Compared with `COCCn1c(COc2ccc(Cl)cc2)nnc1SCC(N)=O`, `O=C(O)CCCn1cc(NC(=O)c2ccc(Br)o2)cn1` is higher in “hERG current change (%, negative = inhibition) at 10uM” value: -8.61% for the first, 3.16% for the second.
